Measurements published in PubChem BioAssay AID1745853 (National Center for Advancing Translational Sciences (NCATS), 2022).
“And” between values parts separate entries of the source, which are not always exact repeats. Equal values may be shown once. The list shows a part of the results. The main result of the screen is listed elsewhere. These columns were measured beside it and carry no call. Bridge positions count the residues as written; N and C are the ends. Square brackets hold non-standard residues; d marks the D form. Peptide text beside a SMILES is read from it. * marks the point of attachment. X1 = CCC(C)C(N)C1=NC(C(=O)*)CS1; dOrn = NCCC[C@@H](N)C(=O)O

Legend:
Assay in all cases: Primary Screen for Target Class Profiling of Small Molecule Inhibitors of Methyltransferases
[1] = target: Glycine N-methyltransferase (Homo sapiens) (UniProt Q14749); conditions: purified enzyme, MTase-Glo SAH luminescence; measured here: GNMT inhibition; at 40 µM; stronger effect = lower value
How it was run: (§1)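 Each enzyme was reacted with SAM and its substrate, with compounds tested once at 40 uM; SAH formed was read by MTase-Glo luminescence.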

[2] = target: Guanidinoacetate N-methyltransferase (Homo sapiens) (UniProt Q14353); conditions: purified enzyme, MTase-Glo SAH luminescence; measured here: GAMT inhibition; at 40 µM; stronger effect = lower value
How it was run: as §1

[3] = target: Histamine N-methyltransferase (Homo sapiens) (UniProt P50135); conditions: purified enzyme, MTase-Glo SAH luminescence; measured here: HNMT inhibition; at 40 µM; stronger effect = lower value
How it was run: as §1

[4] = target: Nicotinamide N-methyltransferase (Homo sapiens) (UniProt P40261); conditions: purified enzyme, MTase-Glo SAH luminescence; measured here: NNMT inhibition; at 40 µM; stronger effect = lower value
How it was run: as §1

[5] = target: Phenylethanolamine N-methyltransferase (Homo sapiens) (UniProt P11086); conditions: purified enzyme, MTase-Glo SAH luminescence; measured here: PNMT inhibition; at 40 µM; stronger effect = lower value
How it was run: as §1
% is scaled to controls: 0 for no effect and ±100 for the full control effect.

Row | Structure (SMILES) | activity change, negative = inhibition [1] | activity change, negative = inhibition [2] | activity change, negative = inhibition [3] | activity change, negative = inhibition [4] | activity change, negative = inhibition [5]
1 | COC(=O)c1ncn2c1C(=O)N(c1ccc(OC)c(OC)c1)C(C)(C(=O)NCc1ccccc1)C2 (stereo not given) | 2.48% | 0% | 8.52% | 2.79% | 2.53%
2 | COCCN1C(=O)c2cc(-c3ccc(OC)cc3)nn2CC1(C)C(=O)NCc1ccccc1OC (stereo not given) | -0.374% | 5.77% | 1.17% | -7.13% | -4.63%
3 | CC(C)(C)NCC(O)c1ccc(O)c(CO)c1 (stereo not given) | -0.827% | 9.3% | 2.84% | 0.362% | 9.38%
4 | Cc1sc2c(c1C)C(c1ccc(Cl)cc1)=N[C@@H](CC(=O)Nc1ccc(OCCOCCOCCOCCNc3cccc4c3C(=O)N(C3CCC(=O)NC3=O)C4=O)cc1)c1nnc(C)n1-2 (stereo not given in full) | 4.19% | 2.02% | 1.89% | -40.1% | -2.76%
5 | COC(=O)c1ncn2c1C(=O)N(CCc1ccccc1)C(C)(C(=O)NC1CCCC1)C2 (stereo not given) | -0.723% | 0.239% | -1.49% | -1.88% | -2.22%
6 | CCC(C)C(N)C1=NC(C(=O)N[C@@H](CC(C)C)C(=O)N[C@H](CCC(=O)O)C(=O)N[C@H](C(=O)N[C@H]2CCCCNC(=O)[C@H](CC(N)=O)NC(=O)[C@@H](CC(=O)O)NC(=O)[C@H](Cc3cnc[nH]3)NC(=O)[C@@H](Cc3ccccc3)NC(=O)[C@H]([C@@H](C)CC)NC(=O)[C@@H](CCCN)NC2=O)[C@@H](C)CC)CS1 (stereo not given in full) (X1-L[dE]IK[dOrn]I[dF]H[dD]N; lactam 4-C) | 1.42% and 3.28% | 11.6% and 26% | 7.24% and 14% | 1.84% and 11.9% | 9% and 8.94%
7 | COC1CC(O[C@H]2CC[C@]3(C)C4CC[C@@]5(C)C(=O)[C@]4(CC[C@@H]3C2)CC[C@@H]5C2=CC(=O)OC2)OC(C)C1OC1OC(COC2OC(CO)C(O)C(O)C2O)C(O)C(O)C1O (stereo not given in full) | 3.28% | 7.4% | 7.08% | -4.36% | 6.57%
8 | O=C(N1CCOCC1)N1C2CCC1CN(c1ccc(C(F)(F)F)cc1)C2 | -8.41% | -6.65% | -4.12% | -15% | -10.8%
9 | O=C(O)C[C@H]1CCC(=O)[C@@H]1C/C=C\CCOC1OC(CO)C(O)C(O)C1O (stereo not given in full) | 0% | 7.26% | 9.46% | -5.53% | 2.53%
10 | O=C(Cc1ccc(C(F)(F)F)cc1)N1CC(COc2ccccc2)C2(C1)CN(C(=O)c1cn[nH]c1)C2 (stereo not given) | -13.7% | -12.6% | -7.39% | -26.6% | -17.5%
11 | CCOc1ccc(CCNc2nc3c(S(=O)(=O)c4ccccc4)nnn3c3ccccc23)cc1OCC | -3.3% | 0% | -0.236% | -3.31% | -1.66%
12 | Fc1ccc(-c2cncc(CN3CCN(c4cccc5c4OCCO5)CC3)c2)cc1 | -5.03% | 2.08% | 5.13% | -21.5% | -5.66%
13 | COC(=O)/C=C/C12COC(C)(C)C1C(O)C(OC(C)=O)C1(C)C2CCC2(C)C(c3ccoc3)OC(=O)C3OC321 (stereo not given) | -7.62% | 5.75% | -2.75% | -10.7% | 2.91%
14 | CCOc1ccc(CN2C(=O)c3cc(-c4ccc(OC)cc4)nn3CC2(C)C(=O)NCc2ccccc2)cc1 (stereo not given) | 5.92% | 3.37% | 8.99% | 7.95% | 3.77%
